# Reference: PMC4336329 (PLoS ONE, 2015)
# The campaign covered roughly 310,000 compounds. About 2,200 (0.71%) showed an effect of 50% or more. The effect is printed as a negative number. The list shows a part of the results.
# Target: human ether-à-go-go-related gene (hERG) potassium channel (human, UniProt Q12809)
# Assay: primary screen, population patch clamp on CHO cells stably expressing hERG
# Chain of human ether-à-go-go-related gene (hERG) potassium channel (Q12809 whole entry, looked up): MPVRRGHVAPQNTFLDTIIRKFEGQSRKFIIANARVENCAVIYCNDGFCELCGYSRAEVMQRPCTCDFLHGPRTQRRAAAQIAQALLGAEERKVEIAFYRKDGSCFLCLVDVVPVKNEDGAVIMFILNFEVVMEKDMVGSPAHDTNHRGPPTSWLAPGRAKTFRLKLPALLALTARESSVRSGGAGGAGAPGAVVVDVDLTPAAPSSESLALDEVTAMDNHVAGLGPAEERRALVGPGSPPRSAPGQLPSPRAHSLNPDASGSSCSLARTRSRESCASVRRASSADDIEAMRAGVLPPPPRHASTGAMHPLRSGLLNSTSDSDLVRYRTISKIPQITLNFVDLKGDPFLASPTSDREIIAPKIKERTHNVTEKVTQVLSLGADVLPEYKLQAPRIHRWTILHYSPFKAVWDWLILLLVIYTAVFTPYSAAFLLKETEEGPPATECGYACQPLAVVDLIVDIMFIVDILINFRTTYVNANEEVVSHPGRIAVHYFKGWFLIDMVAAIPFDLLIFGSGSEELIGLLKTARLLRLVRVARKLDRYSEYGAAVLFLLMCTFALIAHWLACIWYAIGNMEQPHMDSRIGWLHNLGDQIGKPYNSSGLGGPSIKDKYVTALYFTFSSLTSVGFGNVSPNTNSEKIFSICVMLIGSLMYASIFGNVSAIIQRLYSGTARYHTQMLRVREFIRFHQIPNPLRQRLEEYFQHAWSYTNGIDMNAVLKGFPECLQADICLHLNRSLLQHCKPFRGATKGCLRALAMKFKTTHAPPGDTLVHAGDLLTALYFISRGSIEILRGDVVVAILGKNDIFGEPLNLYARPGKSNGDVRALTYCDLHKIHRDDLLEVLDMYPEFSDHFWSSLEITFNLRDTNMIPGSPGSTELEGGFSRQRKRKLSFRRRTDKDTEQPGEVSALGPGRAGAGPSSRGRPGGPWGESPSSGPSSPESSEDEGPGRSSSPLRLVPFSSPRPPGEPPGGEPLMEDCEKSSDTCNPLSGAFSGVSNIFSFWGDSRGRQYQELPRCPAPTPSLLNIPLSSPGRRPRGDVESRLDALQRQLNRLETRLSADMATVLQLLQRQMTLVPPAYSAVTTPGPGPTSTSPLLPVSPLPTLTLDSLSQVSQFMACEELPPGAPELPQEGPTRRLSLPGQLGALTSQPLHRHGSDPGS
row,Compound,"hERG current change (%, negative = inhibition) at 1uM [%]"
1,CCOC(=O)N1CCC(N2C(=O)c3ccccc3C2Nc2ccc(S(=O)(=O)N3CCCCC3)cc2)CC1 (centres unmarked),-7.87
2,CN1CCN(C(=O)CN(c2ccccc2)S(=O)(=O)N(C)C)CC1,15.2
3,CCc1nnc(NC(=O)CSc2nnc(CCc3nc4ccccc4[nH]3)n2C)s1,19.2
4,N#Cc1c2n(c(=S)n(-c3ccccc3)c1=O)CCCCC2,2.53
5,Cc1ccc(CNc2ccc(N3CCOCC3)cc2)cc1,2.34
6,Fc1ccccc1OCCSc1ncnc2nc[nH]c12,10.9
7,Cc1onc(-c2ccccc2)c1C(=O)OCC(=O)Nc1cc(S(=O)(=O)N2CCOCC2)ccc1Cl,8.47
8,CCc1nnc(SCC(=O)NCCC2=CCCCC2)nc1CC,8.71
9,CC(C)(C)CC(=O)NCCc1csc(-c2ccccc2)n1,5.89
10,Cc1ccc(S(=O)(=O)N2CCC(NC(=O)c3cccnc3)CC2)cc1Cl,8.08
11,CN(c1cccc(NC(=O)COc2ccccc2)c1)S(C)(=O)=O,4.12
12,CC(C)(C)c1ccc(-c2nc3n(c(=O)c2C#N)CCS3)cc1,4.45
13,COc1cccc(C2=NOC(C(=O)N3CCC4(CC3)OCCO4)C2)c1 (centres unmarked),-2.21
14,CCN(CC)C(=O)CN(c1cc(Cl)ccc1OC)S(=O)(=O)c1ccc(C)c([N+](=O)[O-])c1,15.6
15,COc1ccc(CCNC(=O)c2c(Cl)ccc(Cl)c2OC)cc1OC,-0.859
16,COc1ccc(NC(=O)c2ccc(C(=O)c3ccccc3)o2)cc1,13.6
17,Cc1cccc(-c2noc(CN(C(C)C)S(=O)(=O)c3ccc(F)cc3)n2)c1,7.56
18,COc1ccc(/C=C/c2c(-c3cccc(C)c3)oc3ccc(-c4ccc5c(c4)OCO5)cc23)cc1,11.5
19,CCCCCN(C(=O)CN(C)Cc1ccc(OC)cc1OC)c1c(N)n(CCCC)c(=O)[nH]c1=O,6.56
20,O=C(Cn1nc(-c2ccccc2F)ccc1=O)Nc1ccc(S(=O)(=O)N2CCCCCC2)cc1,15
21,COc1ccc(C(=O)OCC(=O)Nc2ccc(F)cc2F)cc1OC,15.3
22,COc1ccc(C(=O)/C=C2\Sc3ccccc3N2C)cc1,10.8
23,O=C(CCCC(=O)OCC(F)(F)C(F)F)Nc1ccc(NC(=O)CCCC(=O)OCC(F)(F)C(F)F)cc1,16.4
